Test results: PubChem BioAssay AID463173 (ICCB-Longwood Screening Facility, Harvard Medical School, 2010)
Among all 52,000 compounds or so, about 4,300 (8.3%) were called active. Cut-off read from the data, not from the text of the source: active = survival mostly below about 52% (no sharp cut-off); inactive = mostly above about 56%. The list shows a part of the results.

Each compound was assayed on DeltatarO mutant (assay: growth inhibition of S. aureus wild type versus tarO mutant, primary screen, teichoic acid synthesis inhibitors, RN4220, OD600 (AID 463173)). Conditions: OD600, 18 h, stronger effect = lower value, screened at 18.75 µg/mL (by protocol).

| Structure (SMILES) | survival |
| --- | --- |
| O=C(CSc1nnc(-c2ccc(Cl)cc2)o1)c1ccc([N+](=O)[O-])cc1 | inactive: 55% |
| CCN1C(C)=C(C)S/C1=C1\SC(=S)N(C2CCCCC2)C1=O | inactive: 86% |
| Cc1ccc(Nc2c(-c3ccc(C)s3)nc3ccccn23)cc1 | active: 31% |
| Cc1cc(Cl)ccc1NC(=O)Cc1ccc(NC(=O)N2CCCCc3ccccc32)cc1 | inactive: 87% |
| CCCCn1c(=O)n(-c2cc(OC)ccc2OC)c(=O)c2c3c(sc21)CN(C(C)=O)CC3 | inactive: 108% |
| COc1ccc(-n2nc(C(=O)Nc3cc(C)ccn3)c3c4ccccc4n(C)c3c2=O)cc1 | inactive: 95% |
| Cc1cc(Nc2cccc(Cl)c2)nc2ccc(NC(=O)c3cncc(Br)c3)cc12 | inactive: 69% |
| O=C(CC1N=C2c3ccccc3N=C(SCc3ccccc3Cl)N2C1=O)NCCc1ccccc1 (stereo not given) | inactive: 80% |
| Cc1oc(-c2ccccc2Cl)nc1CS(=O)(=O)CC(=O)NCc1ccc(F)cc1 | inactive: 72% |
| CCC(C(=O)NCc1ccccc1OC)n1nc(C)n2c(cc3occc32)c1=O (stereo not given) | inactive: 80% |
| CCOc1ccccc1NC(=O)CN(C)S(=O)(=O)c1ccc(C(=O)N2CCOCC2)s1 | inactive: 96% |
| O=c1c(=O)n(-c2ccc(F)c(F)c2)ccn1Cc1ccc(F)cc1Cl | inactive: 88% |
| Nc1nnc(CCS(=O)(=O)c2cc(Cl)ccc2Cl)s1 | inactive: 106% |
| COc1ccc(C)cc1NC(=O)C1CCCN(c2ncnc3onc(C)c23)C1 (stereo not given) | inactive: 76% |
| CCOC(=O)C1=C(CS(=O)(=O)c2ccc(F)c(C)c2)NC(=O)NC1c1ccccc1OC (stereo not given) | inactive: 81% |
| CCCc1nnc(NC(=O)c2nc(SCC)ncc2Cl)s1 | inactive: 76% |
| CCc1nn(CC(=O)N2CCCCC2)c(=O)c2cc3occc3n12 | inactive: 87% |
| CCOC(=O)c1noc2ncn(CC(=O)Nc3cccc(C(F)(F)F)c3)c(=O)c12 | inactive: 81% |
| Cc1cccc(NC(=O)CCn2cnc3ccccc3c2=O)c1 | inactive: 118% |
| CCOc1ccc(NC(=O)N2CCN(c3nnc(C)c4c(C)n(-c5ccccc5)nc34)CC2)cc1 | inactive: 119% |
| CCOC(=O)C1(CC)C(=O)OC(C(=O)NC2CCCCC2)C1C (stereo not given) | inactive: 89% |
| COc1ccc(-c2nnc(SCC(=O)NCCC(C)C)nc2-c2ccc(OC)c(OC)c2)cc1OC | inactive: 79% |
| Cc1ccc(CNCc2ccccc2Cl)s1 | inactive: 73% |

| Structure (SMILES) | survival |
| --- | --- |
| CCc1cccc(C)c1NC(=O)Cn1nc(C)n2cccc2c1=O | inactive: 92% |
| COC(=O)c1cc2oc(C)cc2n1CC(=O)Nc1ccc(C(C)C)cc1 | inactive: 66% |
| CCCCNC(=O)c1ccc2c(=O)n(Cc3ccc(OC)cc3)c(=O)[nH]c2c1 | inactive: 68% |
| CCOC(=O)Cn1c(=O)n(CC2CCCO2)c2nc(-c3ccccc3)nc(C(N)=O)c21 (stereo not given) | inactive: 84% |
| COc1ccc(C(=O)Nc2ccc(N(C)Cc3ccccc3)c(C(=O)O)c2)cc1 | inactive: 94% |
| CCOC(=O)C1=C(CN2CCN(c3ccccc3OC)CC2)NC(=O)NC1c1ccccc1 (stereo not given) | inactive: 70% |
| CC(C)NC(=O)N1[C@H](c2cccs2)[C@@H](C)C(=O)[C@@H](C)[C@@H]1c1cccs1 | inactive: 51% |
| O=C(CN1CCCN(Cc2ccccc2F)S1(=O)=O)Nc1ccc(F)c(Cl)c1 | inactive: 68% |
| Cc1cc(C)cc(NC(=O)N2CCC(CN3CCOCC3)CC2)c1 | inactive: 80% |
| Cc1nn(C)cc1CN(C)C(=O)c1cc(-c2ccccc2)nc2ccc(Br)cc12 | inactive: 67% |
| COc1ccc(OCC(=O)N2CCc3ccccc3C2)cc1 | inactive: 80% |
| O=C(Nc1cccc(C(F)(F)F)c1)c1cnn(-c2cccc(F)c2)c1C1CCNCC1 | inactive: 81% |
| Cc1ccc(NC(=O)CCS(=O)(=O)c2ccc(Br)s2)c(Br)c1 | inactive: 60% |
| CCOc1ccc(CCNC(=O)c2oc(=O)c3ccccc3c2-c2ccc(C)cc2)cc1OCC | inactive: 70% |
| CC(C)(C)c1ccc(C(=O)NCCc2csc(-c3ccc(Cl)cc3)n2)cc1 | inactive: 78% |
| CC1=C(C(=O)NCc2cccc(F)c2)C2(CCCCC2)OC1=O | active: 37% |
| CC1Cc2ccccc2N1C(=O)CSc1nc2ccc(NC(=O)COc3ccccc3)cc2s1 (stereo not given) | inactive: 75% |
| N#Cc1c(C(F)(F)F)cc(-c2cccs2)nc1SCc1ccc(F)cc1 | inactive: 125% |
| CCOC(=O)C(C)Sc1ccc2nnc(CCNS(=O)(=O)c3ccc(C)cc3)n2n1 (stereo not given) | inactive: 88% |
| Cc1ccccc1CSc1cn(CC(=O)N2CCCCC2)c2ccccc12 | active: 71% |
| CCOC(=O)c1c(C)oc2nc(C)nc(NCC3CCN(Cc4ccc(C)cc4)CC3)c12 | inactive: 91% |
| CCCCN(CCCC)CCCNC(=O)Cn1cc2c(n1)-c1c(oc(C(=O)N3CCCC3)c1C)CC2 | inactive: 89% |
| O=C(NCc1ccco1)C1CC(c2ccccc2O)=NO1 (stereo not given) | inactive: 87% |

| Structure (SMILES) | survival |
| --- | --- |
| CCOC(=O)c1ccc(N2C(=O)c3[nH]nc(-c4ccc(C)cc4)c3C2c2cccs2)cc1 (stereo not given) | inactive: 80% |
| CC(C)C(c1nnnn1Cc1ccccc1)N1CCN(c2ccccc2)CC1 (stereo not given) | inactive: 87% |
| CCCc1nc2nc(C)c(NS(=O)(=O)c3ccc(CC(C)C)cc3)c(=O)n2[nH]1 | inactive: 79% |
| CCOC(=O)c1c(C)[nH]c(C)c1S(=O)(=O)N1CCC(C(=O)Nc2ccc(OCC)cc2)CC1 | active: -1% |
| CCCCn1cc(S(=O)(=O)c2cc(C)ccc2C)c(=O)c2cc(F)c(N3CCC(C)CC3)cc21 | inactive: 89% |
| CC(C)OCCCNc1ncnc2sc3c(c12)CCCC3 | active: 42% |
| Cc1ccc(C)c(Cn2c(=O)n(CCCCC(=O)NCc3ccc4c(c3)OCO4)c(=O)c3ccccc32)c1 | inactive: 88% |
| CCCC(=O)Nc1cc2nn(-c3ccccc3)nc2cc1C | inactive: 62% |
| CCc1ccccc1NC(=O)Nc1c(C)n(C)n(-c2ccccc2)c1=O | inactive: 88% |
| CCc1cccc(NC(=O)CN(c2ccc(C)c(C)c2)S(=O)(=O)c2ccsc2C(=O)OC)c1 | active: -5% |
| COc1ccc(C(=O)NCC(c2ccco2)S(=O)(=O)c2ccc(F)cc2)cc1 (stereo not given) | inactive: 68% |
| Cc1cc(NC(=O)CCn2c(=O)c3cccn3c3cccnc32)ccc1Br | inactive: 102% |
| O=C(NCc1ccc2c(c1)OCO2)c1cccc(C(=O)NCc2ccc3c(c2)OCO3)c1 | inactive: 70% |
| CCCN1CCN(c2nnc(-n3cccc3C(=O)Nc3cc(Cl)ccc3C)s2)CC1 | inactive: 115% |
| CCSc1ncc(Cl)c(C(=O)Nc2nc3ccc(S(C)(=O)=O)cc3s2)n1 | inactive: 91% |
| COc1ccc(-n2c(=O)c3sc4ccccc4c3n(C)c2=O)cc1 | inactive: 94% |
| CC1=C(C)C(=O)N(c2ccccn2)C1=O | inactive: 93% |
| Cc1ccc(NC(=O)C2CCCN(S(=O)(=O)c3cccc4nsnc34)C2)cc1C (stereo not given) | inactive: 79% |
| CCCn1c(CCC(=O)Nc2cc(C(=O)OC)cc(C(=O)OC)c2)nc2cccnc21 | inactive: 110% |
| N#C/C(=C/Nc1cccc2ccccc12)c1nc2ccccc2o1 | inactive: 54% |
| CCCCOc1ccc(Cn2c(=O)sc3ccccc32)cc1OC | active: -3% |
| CCCn1c(CCC(=O)Nc2cc(OC)cc(OC)c2)nc2cccnc21 | inactive: 78% |
| COC(=O)c1scc(-c2ccc(C)cc2)c1S(=O)(=O)Nc1cc(Cl)c(OC)cc1OC | inactive: 102% |

| Structure (SMILES) | survival |
| --- | --- |
| Cc1ccccc1CCNC(=O)c1ccc2c(c1)nc1n2CCOC1 | inactive: 84% |
| CCCN(CCC)CCCNC(=O)C1CCCN(Cc2nc(-c3ccc(Cl)cc3)oc2C)C1 (stereo not given) | inactive: 130% |
| COCCNC(=O)C1CCN(C(=O)c2cc3sccc3n2Cc2ccc(Cl)cc2)CC1 | inactive: 110% |
| COc1ccc(C2(Nc3cccc(F)c3)C(=O)c3ccccc3C2=O)cc1 | inactive: 49% |
| COc1ccccc1NC(=O)CSC1=Nc2ccccc2C2=NC(CCC(=O)NCc3ccco3)C(=O)N12 (stereo not given) | inactive: 87% |
| O=c1ccc2cc(S(=O)(=O)Nc3ccc(F)c(Cl)c3)ccc2[nH]1 | inactive: 89% |
| CCOc1ccc2nc(SCC(=O)Nc3ccc(F)cc3)nc(-c3ccccc3)c2c1 | inactive: 108% |
| CCOC(=O)Cc1ccc(NC(=O)N2CCSc3ccccc32)cc1 | inactive: 71% |
| Cc1ccc(-c2nc(CS(=O)CC(=O)NCc3ccccc3Cl)c(C)o2)cc1 (stereo not given) | active: 54% |
| CC1=C(C(=O)Nc2ccc(Cl)cc2)C(c2ccccc2F)n2nc(SCc3cccc(Cl)c3)nc2N1 (stereo not given) | inactive: 67% |
| Cc1ccc2oc(-c3ccc(NC(=O)C(F)(F)F)cc3)nc2c1 | inactive: 61% |
| COc1ccc(OC)c(NC(=O)C2Cc3ccccc3CN2S(=O)(=O)c2ccc(F)cc2)c1 (stereo not given) | inactive: 57% |
| Cc1ccc(Cn2c(=O)n(CCc3ccc(Cl)cc3)c(=O)c3ccccc32)cc1 | active: 42% |
| COc1ccc(-n2nc3cc(C)c(NC(=O)c4ccc5c(c4)OCO5)cc3n2)cc1 | inactive: 88% |
| CCc1ccc(CNC(=O)c2cc3n(n2)CCCN(Cc2ccccc2)C3=O)cc1 | inactive: 97% |
| COc1ccc(NC(=O)Cn2c(=O)n(Cc3ccccc3OC)c(=O)c3cccnc32)cc1Cl | inactive: 74% |
| Cc1ccc(-n2ncc3c(NC(C)c4ccccc4)ncnc32)cc1 (stereo not given) | inactive: 94% |
| COc1cccc(CNC(=O)Cc2c(C)c3c(cc(C)c4c(C)c(C)oc43)oc2=O)c1 | inactive: 89% |
| O=S(=O)(c1ccc(Cl)cc1)c1nc(-c2cccs2)oc1SCc1ccc(F)cc1 | inactive: 67% |
| Cn1nnc2c(NCc3ccc(Cl)cc3)ncnc21 | inactive: 81% |
| COc1ccc(C2=C(C)C(N3CCC(C(=O)Nc4ccccc4F)CC3)=NS2(=O)=O)cc1 | inactive: 90% |
